Laboratory results as given in a collection of fitness landscapes (doi:10.1016/j.celrep.2020.107928).
In all, about 81,000 sequences were measured (“one-hybrid fitness for binding parS DNA”: median about -0.17, highest 2% from about 0.51 on). Some of the results follow.

B1: Caulobacter ParB omega fusion; a variant is named by its letters at X, in order, B8GW30 (parent)
chain: MESVVVGEPGMSEGRRGLGRGLSALLGEVDAAPAQAPGEQLGGSREAPIEILQRNPDQPRRTFREEDLEDLSNSIREKGVLQPILVRPSPDTAGEYQIVAGERAWRAAQRAGLKTVPIMVRELDDLAVLEIGIIENVQRADLNVLEEALSYKVLMEKFERTQENIAQTIGKSXSHVANXMRLLXLPDEVQSYLVSGELTAXHARAIAAAADPVALAKQIIEGGLSVRETEALARKAPNLSAGKSKGGRPPRVKDTDTQALESDLSSVLGLDVSIDHRGSTGTLTITYATLEQLDDLCNRLTRGI

Variants of: B1
Test: one-hybrid fitness for binding parS DNA (scaled: cognate 1, non-cognate 0); higher = stronger binding
Settings: with parS DNA site
Summary of the method: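 Selection: bacterial one-hybrid in E. coli USO, HIS3 reporter with the site 19 bp from the promoter, 48 hours at 37°C on M9-minus-histidine plus 0.1 mM IPTG and 5 mM 3-AT. Libraries were Caulobacter ParB with four randomised specificity codons, sequenced on Illumina before and after selection. Fitness is the rescaled log change in variant-to-wild-type read ratio, anchored to the cognate and non-cognate sites.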

Row | Variant | one-hybrid fitness for binding parS DNA
1 | RGRL | ≤ 0.2
2 | LMPM | ≤ 0.2
3 | TAYW | ≤ 0.2
4 | MAFV | ≤ 0.2
5 | GYCR | ≤ 0.2
6 | WIHC | ≤ 0.2
7 | RIYT | 0.926
8 | KLDT | ≤ 0.2
9 | SLTE | ≤ 0.2
10 | RTWW | 0.293
11 | LRNI | ≤ 0.2
12 | GTPE | ≤ 0.2
13 | TEPV | ≤ 0.2
14 | QYRQ | ≤ 0.2
15 | FGMV | ≤ 0.2
16 | TTLA | ≤ 0.2
17 | QPIM | ≤ 0.2
18 | NTCG | ≤ 0.2
19 | SDYR | ≤ 0.2
20 | QGGR | ≤ 0.2
21 | PCRH | ≤ 0.2
22 | PWTN | ≤ 0.2
23 | LWHL | ≤ 0.2
24 | QSNL | ≤ 0.2

Row | Variant | one-hybrid fitness for binding parS DNA
25 | PVNH | ≤ 0.2
26 | MLKH | ≤ 0.2
27 | QVRQ | ≤ 0.2
28 | PHTI | ≤ 0.2
29 | CMWL | ≤ 0.2
30 | SSGM | ≤ 0.2
31 | HHSS | ≤ 0.2
32 | ACRT | ≤ 0.2
33 | AGGL | ≤ 0.2
34 | QKHT | ≤ 0.2
35 | KPLS | ≤ 0.2
36 | RGSY | 0.226
37 | YCKC | ≤ 0.2
38 | PEQG | ≤ 0.2
39 | TRSD | ≤ 0.2
40 | TYWM | ≤ 0.2
41 | MRWG | ≤ 0.2
42 | RETR | ≤ 0.2
43 | DCLK | ≤ 0.2
44 | RPWL | ≤ 0.2
45 | DRVL | ≤ 0.2
46 | KCTY | ≤ 0.2
47 | FWRG | ≤ 0.2
48 | AQPL | ≤ 0.2

Row | Variant | one-hybrid fitness for binding parS DNA
49 | KWLS | ≤ 0.2
50 | THAH | ≤ 0.2
51 | YCRS | ≤ 0.2
52 | TEKN | ≤ 0.2
53 | IGSL | ≤ 0.2
54 | PADH | ≤ 0.2
55 | VMQF | ≤ 0.2
56 | KSPT | ≤ 0.2
57 | PDSD | ≤ 0.2
58 | VTML | ≤ 0.2
59 | DSPV | ≤ 0.2
60 | HPME | ≤ 0.2
61 | IVGC | ≤ 0.2
62 | NLLY | ≤ 0.2
63 | ADTL | ≤ 0.2
64 | TSIG | ≤ 0.2
65 | AHVW | ≤ 0.2
66 | VQVF | ≤ 0.2
67 | SHVL | ≤ 0.2
68 | DSKS | ≤ 0.2
69 | LNRS | ≤ 0.2
70 | EYHD | ≤ 0.2
71 | SKIM | ≤ 0.2
72 | SKCR | ≤ 0.2

Row | Variant | one-hybrid fitness for binding parS DNA
73 | STIL | ≤ 0.2
74 | KLRC | ≤ 0.2
75 | IKCS | ≤ 0.2
76 | HING | ≤ 0.2
77 | CTCI | ≤ 0.2
78 | GDMC | ≤ 0.2
79 | TAEM | ≤ 0.2
80 | PHGE | ≤ 0.2
81 | RYRK | ≤ 0.2
82 | SAYQ | ≤ 0.2
83 | LAWF | ≤ 0.2
84 | SPLI | ≤ 0.2
85 | AIHV | ≤ 0.2
86 | ILQN | ≤ 0.2
87 | RNYS | 0.85
88 | NPLM | ≤ 0.2
89 | SYGT | ≤ 0.2
90 | GSGS | ≤ 0.2
91 | IQKR | ≤ 0.2
92 | NRFA | ≤ 0.2
93 | DGSA | ≤ 0.2
94 | EFKC | ≤ 0.2
95 | QITC | ≤ 0.2
96 | WSFR | ≤ 0.2

Row | Variant | one-hybrid fitness for binding parS DNA
97 | PIGY | ≤ 0.2
98 | QMDF | ≤ 0.2
99 | HQPV | ≤ 0.2
100 | HTRY | ≤ 0.2
101 | YALG | ≤ 0.2
102 | MFIR | ≤ 0.2
103 | ADHL | ≤ 0.2
104 | QSPP | ≤ 0.2
105 | NIGS | ≤ 0.2
106 | TVVY | ≤ 0.2
107 | PNER | ≤ 0.2
108 | YCLR | ≤ 0.2
109 | THVC | ≤ 0.2
110 | AYWI | ≤ 0.2
111 | SNHR | ≤ 0.2
112 | GQSG | ≤ 0.2
113 | RVHH | 0.235
114 | PMSN | ≤ 0.2
115 | RTRK | ≤ 0.2
116 | APIG | ≤ 0.2
117 | NVTG | ≤ 0.2
118 | TCKQ | ≤ 0.2
119 | CNAC | ≤ 0.2
120 | LMRV | ≤ 0.2

Row | Variant | one-hybrid fitness for binding parS DNA
121 | HIRC | ≤ 0.2
122 | HKCS | ≤ 0.2
123 | QAVS | ≤ 0.2
124 | GMSA | ≤ 0.2
125 | VQVT | ≤ 0.2
126 | NSNI | ≤ 0.2
127 | MSSF | ≤ 0.2
128 | DHSK | 0.227
129 | TKQQ | ≤ 0.2
130 | SFAL | ≤ 0.2
131 | GSIP | ≤ 0.2
132 | WETR | ≤ 0.2
133 | ETSY | ≤ 0.2
134 | LRPG | ≤ 0.2
135 | VGHR | ≤ 0.2
136 | LDQC | ≤ 0.2
137 | GQHA | ≤ 0.2
138 | ATHV | ≤ 0.2
139 | RFKE | ≤ 0.2
140 | DSRY | ≤ 0.2
141 | RIKR | ≤ 0.2
142 | NQTL | ≤ 0.2
143 | SSSH | ≤ 0.2
144 | SGHC | ≤ 0.2

Row | Variant | one-hybrid fitness for binding parS DNA
145 | NLPV | ≤ 0.2
146 | AVIS | ≤ 0.2
147 | APLE | ≤ 0.2
148 | CPNC | ≤ 0.2
149 | RFYD | ≤ 0.2
150 | SADS | ≤ 0.2
151 | YAEM | ≤ 0.2
152 | GSCL | ≤ 0.2
153 | ACPT | ≤ 0.2
154 | YTYG | ≤ 0.2
155 | KSRD | ≤ 0.2
156 | RYMI | ≤ 0.2
157 | PDHT | ≤ 0.2
158 | VIQS | ≤ 0.2
159 | VDAG | ≤ 0.2
160 | QCEI | ≤ 0.2
161 | WNLS | ≤ 0.2
162 | QRNY | ≤ 0.2
163 | SKQG | ≤ 0.2
164 | NTNR | ≤ 0.2
165 | IMTY | ≤ 0.2
166 | LITA | ≤ 0.2
167 | LNMR | ≤ 0.2
168 | TVPQ | ≤ 0.2

Row | Variant | one-hybrid fitness for binding parS DNA
169 | GDRF | ≤ 0.2
170 | IAWT | ≤ 0.2
171 | WKGG | ≤ 0.2
172 | VYVG | ≤ 0.2
173 | QDDT | ≤ 0.2
174 | PPCQ | ≤ 0.2
175 | PIRY | ≤ 0.2
176 | KSKG | ≤ 0.2
177 | WRNS | ≤ 0.2
178 | TMCL | ≤ 0.2
179 | KWQG | ≤ 0.2
180 | QMNI | ≤ 0.2
181 | RMLL | ≤ 0.2
182 | RKVK | ≤ 0.2
183 | VWYS | ≤ 0.2
184 | SRCC | ≤ 0.2
185 | RKMM | 0.283
186 | VNLS | ≤ 0.2
187 | QVIK | ≤ 0.2
188 | FLRG | ≤ 0.2
189 | QGAF | ≤ 0.2
190 | LGSE | ≤ 0.2
191 | KKHC | ≤ 0.2
192 | LKCG | ≤ 0.2

Row | Variant | one-hybrid fitness for binding parS DNA
193 | QRND | ≤ 0.2
194 | MHMV | ≤ 0.2
195 | WILC | ≤ 0.2
196 | QIDS | ≤ 0.2
197 | TRNE | ≤ 0.2
198 | RQGY | 0.462
199 | PLML | ≤ 0.2
200 | SMPV | ≤ 0.2
201 | FHAY | ≤ 0.2
202 | RFML | ≤ 0.2
203 | EQYR | ≤ 0.2
204 | GRCC | ≤ 0.2
205 | RIGE | ≤ 0.2
206 | YMTS | ≤ 0.2
207 | HCCE | ≤ 0.2
208 | WPSW | ≤ 0.2
209 | WYHF | ≤ 0.2
210 | TELR | ≤ 0.2
211 | ALSV | ≤ 0.2
212 | EQAY | ≤ 0.2
213 | NSKM | ≤ 0.2
214 | AKFM | ≤ 0.2
215 | TLKS | ≤ 0.2
216 | ASVS | ≤ 0.2

Row | Variant | one-hybrid fitness for binding parS DNA
217 | KEKT | ≤ 0.2
218 | GHKS | ≤ 0.2
219 | PYLN | ≤ 0.2
220 | GQWS | ≤ 0.2
221 | GQAK | ≤ 0.2
222 | GALD | ≤ 0.2
223 | GPPT | ≤ 0.2
224 | ITSM | ≤ 0.2
225 | VPNI | ≤ 0.2
226 | MLLR | ≤ 0.2
227 | VCCC | ≤ 0.2
228 | DMGP | ≤ 0.2
229 | NPTL | ≤ 0.2
230 | TNPW | ≤ 0.2
231 | PCYN | ≤ 0.2
232 | RGTI | ≤ 0.2
233 | KDPC | ≤ 0.2
234 | TVAY | ≤ 0.2
235 | WAQS | ≤ 0.2
236 | YEPL | ≤ 0.2
237 | HHII | ≤ 0.2
238 | QRGD | ≤ 0.2
239 | GQPS | ≤ 0.2
240 | RQPS | 0.535

Row | Variant | one-hybrid fitness for binding parS DNA
241 | QNFW | ≤ 0.2
242 | QNKY | ≤ 0.2
243 | TSSR | ≤ 0.2
244 | DVAW | ≤ 0.2
245 | TNKR | ≤ 0.2
246 | TAPN | ≤ 0.2
247 | NMNC | ≤ 0.2
248 | TKTG | ≤ 0.2
249 | CSDI | ≤ 0.2
250 | HTHV | ≤ 0.2
251 | ETNT | ≤ 0.2
252 | THVE | ≤ 0.2
253 | QTYT | ≤ 0.2
254 | QLTF | ≤ 0.2
255 | PVLW | ≤ 0.2
256 | TNRS | ≤ 0.2
257 | ESSS | ≤ 0.2
258 | KATK | ≤ 0.2
259 | HLKV | ≤ 0.2
260 | TSMI | ≤ 0.2
261 | QYWE | ≤ 0.2
262 | RPWY | ≤ 0.2
263 | VPPA | ≤ 0.2
264 | APQL | ≤ 0.2

Row | Variant | one-hybrid fitness for binding parS DNA
265 | WFSD | ≤ 0.2
266 | RYPD | ≤ 0.2
267 | TTLM | ≤ 0.2
268 | IQTP | ≤ 0.2
269 | RKFC | 0.878
270 | YLQR | ≤ 0.2
271 | QFQV | ≤ 0.2
272 | GRAG | ≤ 0.2
273 | QNNQ | ≤ 0.2
274 | TPHR | ≤ 0.2
275 | PPIY | ≤ 0.2
276 | VLMC | ≤ 0.2
277 | YGVS | ≤ 0.2
278 | KMNG | ≤ 0.2
279 | LNCF | ≤ 0.2
280 | NQHR | ≤ 0.2
281 | WCVW | ≤ 0.2
282 | PQFS | ≤ 0.2
283 | MMMT | ≤ 0.2
284 | KPHS | ≤ 0.2
285 | NTCC | ≤ 0.2
286 | YNYR | ≤ 0.2
287 | SHGH | ≤ 0.2
288 | YHMS | ≤ 0.2

Row | Variant | one-hybrid fitness for binding parS DNA
289 | ADYI | ≤ 0.2
290 | LPNI | ≤ 0.2
291 | HLCC | ≤ 0.2
292 | SHWL | ≤ 0.2
293 | MEYS | ≤ 0.2
294 | DYCT | ≤ 0.2
295 | QIYG | ≤ 0.2
296 | HNPV | ≤ 0.2
297 | KRVL | ≤ 0.2
298 | DVNY | 0.281
299 | VYTV | ≤ 0.2
300 | TNTK | ≤ 0.2
301 | AWCG | ≤ 0.2
302 | AEHG | ≤ 0.2
303 | SRRP | ≤ 0.2
304 | RMHD | ≤ 0.2
305 | RHEE | ≤ 0.2
306 | ADCW | 0.268
